The supplement of paper PMC6089552
The campaign covered roughly 3,200 compounds. About 300 (9.4%) showed activity. Only a part is listed here, and it is no random draw.

System: A673/TR/shEF
Assay: cell viability (LOESS-normalised, relative to median of negative controls) (log2 ratio); higher = more viable cells (less compound effect), active = hit call of the paper (over 3 MAD below the median)
Conditions: treatment time: 72 h
Outline: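 A673/TR/shEF Ewing sarcoma cells (1,500 per well, 384-well plates) were grown with or without doxycycline to induce EWS-FLI1 shRNA knockdown, starting 24 h before compounds. Library compounds at two or more concentrations, with DMSO controls, were added for three days. Cell viability was read by CellTiter-Glo luminescence on an Envision reader, then LOESS-corrected per plate, divided by the median of negative controls and log2-transformed. Hits were wells at least three median absolute deviations from the median of all screened wells.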

[1] = 0.25 µM, library screen: screen1, EWS-FLI1 expression: high (no doxycycline)
[2] = 0.25 µM, library screen: screen1, EWS-FLI1 expression: low (doxycycline-induced shRNA knockdown)
[3] = 0.25 µM, library screen: screen2, EWS-FLI1 expression: high (no doxycycline)
[4] = 0.25 µM, library screen: screen2, EWS-FLI1 expression: low (doxycycline-induced shRNA knockdown)
[5] = 2.5 µM, library screen: screen1, EWS-FLI1 expression: high (no doxycycline)
[6] = 2.5 µM, library screen: screen1, EWS-FLI1 expression: low (doxycycline-induced shRNA knockdown)
[7] = 2.5 µM, library screen: screen2, EWS-FLI1 expression: high (no doxycycline)
[8] = 2.5 µM, library screen: screen2, EWS-FLI1 expression: low (doxycycline-induced shRNA knockdown)
[9] = 0.103 µM, library screen: screen3, EWS-FLI1 expression: high (no doxycycline)
[10] = 0.103 µM, library screen: screen3, EWS-FLI1 expression: low (doxycycline-induced shRNA knockdown)
[11] = 0.308 µM, library screen: screen3, EWS-FLI1 expression: high (no doxycycline)
[12] = 0.308 µM, library screen: screen3, EWS-FLI1 expression: low (doxycycline-induced shRNA knockdown)
[13] = 0.926 µM, library screen: screen3, EWS-FLI1 expression: high (no doxycycline)
[14] = 0.926 µM, library screen: screen3, EWS-FLI1 expression: low (doxycycline-induced shRNA knockdown)
[15] = 2.8 µM, library screen: screen3, EWS-FLI1 expression: high (no doxycycline)
[16] = 2.8 µM, library screen: screen3, EWS-FLI1 expression: low (doxycycline-induced shRNA knockdown)
[17] = 8.3 µM, library screen: screen3, EWS-FLI1 expression: high (no doxycycline)
[18] = 8.3 µM, library screen: screen3, EWS-FLI1 expression: low (doxycycline-induced shRNA knockdown)
[19] = 25 µM, library screen: screen3, EWS-FLI1 expression: high (no doxycycline)
[20] = 25 µM, library screen: screen3, EWS-FLI1 expression: low (doxycycline-induced shRNA knockdown)

Measured: cell viability (log2)

NC(N)=N/N=C/c1c(Cl)cccc1Cl
inactive: [1] 0.0575 | [2] 0.0266 | [3] 0.133 | [4] 0.0666 | [5] 0.115 | [6] 0.0808 | [7] 0.171 | [8] 0.124

CN(C)CCc1c[nH]c2ccc(C[C@H]3COC(=O)N3)cc12
inactive: [9] 0.158 | [10] 0.00174 | [11] 0.131 | [12] 0.0288 | [13] 0.0978 | [14] 0.109 | [15] 0.103 | [16] 0.0615 | [17] 0.084 | [18] 0.14 | [19] 0.026 | [20] 0.0892

CN(C)CCC=C1c2ccccc2C=Cc2ccccc21
inactive: [1] 0.131 | [2] 0.0615 | [3] 0.206 | [4] 0.141 | [5] 0.117 | [6] 0.104 | [7] 0.126 | [8] 0.0683

O=c1[nH]c(=O)n([C@H]2C[C@H](O)[C@@H](CO)O2)cc1F
active: [1] -1.07 | [3] -0.231 | [11] -0.266 | [13] -0.534 | [5] -1.48 | [7] -0.805 | [15] -0.621 | [17] -0.85 | 25 µM, library screen: screen2, EWS-FLI1 expression: high (no doxycycline) -0.944 | [19] -1.03

Nc1ccc(C(=O)Oc2ccccc2)c(O)c1
inactive: [1] 0.134 | [2] 0.181 | [5] 0.136 | [6] 0.157

CC1=C(/C=C/C(C)=C/C=C/C(C)=C/C(=O)Nc2ccc(O)cc2)C(C)(C)CCC1
inactive: [3] 0.202 | [4] 0.108 | [7] 0.144 | [8] 0.0949

COc1ccc2c(c1)OCC(=Cc1ccc(OC)c(O)c1)C2=O
inactive: [1] 0.111 | [2] 0.0739 | [5] 0.125 | [6] 0.0254

COc1cc2c(cc1OC)[C@@H](c1ccccc1)CN(C)CC2
inactive: [3] 0.0687 | [4] 0.111 | [7] 0.192 | [8] 0.0125

NC(=O)c1ncn([C@@H]2O[C@H](CO)[C@@H](O)[C@H]2O)c1N
inactive: [9] 0.135 | [10] 0.0617 | [11] 0.0707 | [12] 0.0876 | [13] 0.088 | [14] 0.0588 | [15] 0.1 | [16] 0.0775 | [17] 0.0463 | [18] 0.126 | [19] 0.13 | [20] 0.087

CCC(=O)O[C@H]1[C@H](O[C@@H]2[C@@H](C)[C@H](O[C@H]3C[C@@](C)(OC)[C@@H](O)[C@H](C)O3)[C@@H](C)C(=O)O[C@H](CC)[C@@](C)(O)[C@H](O)[C@@H](C)C(=O)[C@H](C)C[C@@]2(C)O)O[C@H](C)C[C@@H]1N(C)C
inactive: [1] 0.222 | [2] 0.0632 | [5] 0.0888 | [6] 0.166

O=c1cc([C@H]2Oc3cc(O)cc(O)c3C[C@H]2O)cc2c([C@H]3Oc4cc(O)cc(O)c4C[C@H]3O)cc(O)c(O)c2c1O
inactive: [1] 0.0869 | [2] 0.0834 | [5] 0.134 | [6] 0.162

O=C(O)c1cc(O)c2c(c1)[C@H]([C@H]1c3cc(C(=O)O)cc(O)c3C(=O)c3c(O[C@@H]4O[C@H](CO)[C@@H](O)[C@H](O)[C@H]4O)cccc31)c1cccc(O[C@@H]3O[C@H](CO)[C@@H](O)[C@H](O)[C@H]3O)c1C2=O
inactive: [1] 0.102 | [2] 0.0132 | [5] 0.0773 | [6] 0.0657

CC(=O)Oc1cc(C(C)C)c(OCCN(C)C)cc1C
inactive: [3] 0.138 | [4] 0.0935 | [7] 0.152 | [8] 0.139

CCN(CC)C(C)C(=O)N1c2ccccc2Sc2ccccc21 (stereo unspecified)
inactive: [3] 0.104 | [4] 0.0808 | [7] 0.114 | [8] 0.0914

CC(c1cc2ccccc2s1)N(O)C(N)=O (stereo unspecified)
inactive: [9] 0.0127 | [10] 0.0621 | [11] 0.0838 | [12] 0.0693 | [13] 0.0243 | [14] 0.106 | [15] 0.0229 | [16] 0.0581 | [17] -0.00103 | [18] 0.101 | [19] 0.135 | [20] 0.157

C[C@@H]1C(=O)O[C@H]2C[C@@]34[C@H]5C[C@@H](C(C)(C)C)[C@]36[C@@H](OC(=O)[C@@H]6O)O[C@@]4(C(=O)O5)[C@]21O
inactive: [1] 0.045 | [2] 0.0713 | [5] 0.0908 | [6] 0.148

Nc1ccc(S(=O)(=O)c2ccc(N)cc2)cc1
inactive: [1] 0.128 | [2] 0.0378 | [3] 0.169 | [4] 0.151 | [5] 0.17 | [6] 0.175 | [7] 0.125 | [8] 0.107

OC[C@H]1O[C@@H](Oc2ccc(O)cc2)[C@H](O)[C@@H](O)[C@@H]1O
inactive: [1] 0.043 | [2] -0.0242 | [5] 0.114 | [6] 0.0261

OCCN1CCN(CCCN2c3ccccc3Sc3ccc(Cl)cc32)CC1
inactive: [1] 0.00879 | [2] 0.0101 | [3] 0.125 | [4] 0.0375 | [5] 0.124 | [6] 0.151 | [7] 0.179 | [8] 0.136

CN(C)CCc1c[nH]c2ccc(Cn3cncn3)cc12
inactive: [9] 0.0562 | [10] -0.00371 | [11] 0.0343 | [12] 0.0436 | [13] 0.064 | [14] 0.0432 | [15] 0.0685 | [16] 0.0816 | [17] -0.0115 | [18] 0.0507 | [19] 0.0815 | [20] 0.149

CCCCC(=O)N(Cc1ccc(-c2ccccc2-c2nn[nH]n2)cc1)[C@H](C(=O)O)C(C)C
inactive: [9] 0.0298 | [10] -0.0095 | [11] 0.124 | [12] 0.0801 | [13] 0.0765 | [14] 0.054 | [15] 0.0694 | [16] 0.124 | [17] 0.00201 | [18] 0.078 | [19] 0.137 | [20] 0.104
